Screen size: about 150,000 compounds; about 540 (0.36%) showed an effect of 50% or more. Some of the results follow.
Tested on: Plasmodium falciparum
Assay: Primary screen in NF54 nanoGlo assay, in single point, at 2uM, 72h; a lower Z score goes with more inhibition
Type: functional, Erythrocyte
Details: timepoint 72 hour

Compound | % Inhibition | Z score
CC(Cc1ccccc1Br)NC[C@@H](C)O (some centres undefined) | -16% | 1.74
COc1cc(CC(=O)N(C)CCN(C)C2CC2)ccc1O | -8% | 1.33
Cn1c(=O)oc2ccc(S(=O)(=O)NC[C@](C)(O)c3ccc(-c4ccccc4)cc3)cc21 | -3% | 0.59
COc1ccc(CNC(=O)C(Cl)(Cl)Cl)cc1 | -10% | 1.43
Cc1nc(N2CCC3CCC(C2)N3C)ccc1Br (centres undefined) | -2% | 0.33
Cc1ccc(N2C(=O)NC(=O)[C@@]3(Cc4cc(C)ccc4N(C)C3)C2=O)c(C)c1 | 26% | -3.25
Cc1ccc2c(c1)C[C@]1(CN2C)C(=O)N(c2ccc(Br)cc2)C(=O)N=C1O | -11% | 1.22
O=C(c1ccc(=O)[nH]n1)N1C2CCC1c1ccccc12 | 16% | -2.05
Cc1cc(NCCc2c[nH]c(=O)[nH]c2=O)n2nccc2n1 | -11% | 1.27
O=C(CN1CCCC1=O)NCc1ccco1 | -14% | 2.17
COc1ccc(CCC(=O)N2CC[C@@]3(C2)C(=O)N(C)c2ccc(OC)cc23)cc1 | -3% | 0.38
CCC[C@@H](C#N)NS(=O)(=O)c1ccc(S(=O)(=O)F)cc1 | 0% | 0
O=c1[nH]c2cc(N3CCNCC3)ccc2o1 | -18% | 2.2
Cc1nc(CC(=O)N2CC(N3CCCC[C@@H]3C)C2)cs1 | -3% | 0.53
C[C@H](N)Cc1ccc(C(F)(F)F)cc1 | 6% | -0.89
COc1cccc([C@H]2CN(c3cc(C#N)ccn3)[C@@H]3C4CCN(CC4)[C@H]23)c1 | -16% | 3.07
O=C(Cc1ccc(O)c(F)c1)N1C[C@@H]2CC[C@H]1CN(Cc1ccccn1)C2 | 2% | -0.32
COc1cccc(C[C@H](C)NC2CCN(C(=O)Nc3ccccc3)CC2)c1 | -12% | 1.54
CC(C)=CCN1C[C@@H]2CC[C@H]1CN(C(=O)c1cnc(C)[nH]c1=O)C2 | -11% | 1.09
CO[C@H]1[C@@H]2CC[C@H]1CN(Cc1ccc3cc(Cl)ccc3n1)C2 | -3% | 0.44
CC(Cc1ccc(F)cc1)NC(C)CN1CCN(C)CC1 (centres undefined) | 5% | -0.66
O=C1N[C@](c2ccccc2)(C(F)(F)F)c2ccc3ccccc3c2O1 | 35% | -1.33

Compound | % Inhibition | Z score
Cc1cncc(CN2CCC(CF)CC2)c1 | -12% | 1.15
COc1ccccc1NC(=O)N1C[C@@H]2C[C@H](C1)c1ccc(-c3cncnc3)c(=O)n1C2 | 15% | -1.79
Cn1nc(-c2cccc3c2CCNC3)c2c(Cl)cccc21 | -15% | 1.37
O=C(N[C@@H](C1CCCC1)C(F)(F)F)c1ccc2oc(=O)[nH]c2c1 | -5% | 0.6
O=c1oc2ccccc2n1-c1nc2ccccc2s1 | -29% | 3.42
CC(C)(C)OC(=O)C1CC2CCC1N2Cc1cscn1 (centres undefined) | -7% | 0.95
COc1ccc2nc(CN3CC[C@H](O)CC34CCC4)[nH]c2n1 | -9% | 1.39
Cc1ccc(N2C[C@H](c3ccccc3)[C@@H]3[C@H]2C2CCN3CC2)nn1 | -12% | 1.18
O=S(=O)(NC12CCCC1CNC2)c1onc(C2CC2)c1Cl (centres undefined) | 94% | -8.97
CC(C)(NCn1c(=O)oc2cc(Br)ccc21)c1ccccc1 | -20% | 3.72
Cc1ccc(C(=O)N[C@H]2COC[C@@H]2N2CCN(C)CC2)cn1 | -6% | 1.08
CC(C)c1noc([C@H](C)Nc2ccc3oc(=O)[nH]c3c2)n1 | -1% | 0.09
O=C(NCC#CCN1CCCCCC1)C1CCC1 | -11% | 1.61
COCC(O)CNC(Cc1ccccc1C)c1ccco1 (centres undefined) | 0% | 0.06
C[C@H]1CC2(CCN(C(=O)OC(C)(C)C)CC2)CN1 | -6% | 0.9
C[C@H](NC(=O)c1cccc2oc(=O)[nH]c12)c1ccc2c(c1)OCCO2 | -8% | 1.02
CC(C)[C@H]1C=CCN1C(=O)c1ccc(CCN)cc1 | -10% | 1.3
COc1ccc(N2C(=O)NC(=O)C3(Cc4ccccc4N4CCC(c5ccccc5)CC43)C2=O)cc1 (centres undefined) | -10% | 1.43
Clc1cnn(CCN2CCC3(CCCC3)C2)c1 | -1% | 0.23
c1ccc(C[C@@H]2COC3(CCNCC3)C2)cc1 | -2% | 0.3
CC(C)CNC1(c2nn[nH]n2)CCCC1 | 2% | -0.29
CCCN1C[C@@H]2CC[C@H]1CN(C(=O)Cc1cccc(OC)c1)C2 | 3% | -0.64

Compound | % Inhibition | Z score
Cc1ccc(N2CCN3CCNC(=O)[C@@H]3C2)nn1 | -7% | 0.86
CCOC(C)c1nc(CC(=O)N2CC(C)C(N(C)C)C2)cs1 (centres undefined) | -13% | 1.94
COc1ccc2c(c1)[C@@]1(CCN(C(=O)C3CCCC3)C1)C(=O)N2C | 0% | 0.04
CCCCN(C(=O)Oc1ccccc1)[C@H]1CCS(=O)(=O)C1 | -7% | 0.64
C[S+](C)c1c([O-])[nH]c(=O)n(-c2ccccc2F)c1=O | -21% | 2.84
O=C(N[C@H]1CC[C@@H](CS(=O)(=O)F)C1)c1cccs1 | -6% | 0.7
CC1(CO)CCCC1NC1CCCCC1 (centres undefined) | -6% | 0.56
Brc1cncc(-c2noc(C34CCCN(CCC3)C4)n2)c1 | 2% | -0.25
COc1ccc(CCN2C(=O)N=C(O)C3(Cc4cccc(F)c4N4CCCC43)C2=O)cc1OC (centres undefined) | -1% | 0.07
CN1CCN2c3cccc(Cl)c3CC3(C(=O)NC(=O)N(c4ccc(F)cc4)C3=O)C2C1 (centres undefined) | 4% | -0.49
Cc1nc(CC(=O)N2CCN3CCC2C3)c(C)s1 (centres undefined) | -13% | 2.25
Cc1nc(C)c(F)c(N2CCC[C@H]2c2cccnc2)n1 | -2% | 0.36
CN1CC[C@H]2CCN(c3nc4ccccc4o3)[C@H]2C1 | 4% | -0.43
CC(C)CC(=O)N1CC[C@@H]2COCCN(C)[C@@H]2C1 | -5% | 0.65
Cc1cccnc1[C@H](C)NC[C@]1(O)CCCN2CCCC[C@@H]21 | 9% | -1.18
O=C(CNc1cccc(Oc2ccccc2)c1)N1CCC2(CC1)OCCO2 | -2% | 0.41
Cc1ccc(-c2cn(CC(=O)NCc3ccccc3C(F)(F)F)c(=O)o2)cc1 | -23% | 2.34
CCOC[C@@H]1CC(F)(F)CN1C1CN(C(=O)Cc2cccc(F)c2)C1 | -4% | 0.64
CCc1cnc(CCN[C@@H](C)Cc2ccsc2)s1 | 12% | -1.71
Cc1ccc(C)n1[C@@H](Cc1cnc[nH]1)C(=O)O | -1% | 0.15
CNCCc1cccc(Br)c1 | -10% | 1.55
O=C(c1cc[nH]n1)N1C[C@H](c2cccc(F)c2F)[C@@H]2[C@H]1C1CCN2CC1 | 0% | -0.08

Compound | % Inhibition | Z score
O=C(Nc1ccc(Cl)cc1C(=O)c1ccccc1F)c1ccc2ncsc2c1 | -2% | 0.28
CCc1ccc(CN(C)CCN2C[C@@H]3CC[C@H]2C3)nc1 | -13% | 2.18
c1ccc2c(c1)CC(N1C3CCC1c1cn[nH]c1C3)C2 (centres undefined) | 2% | -0.27
CCCCN1C(=N)C(CC)(CC)C(=O)NC1=O | -19% | 2.64
CC1(C)C(C(=O)NC(C#N)C2CCOC2)C1(C)C (centres undefined) | -12% | 1.21
Cc1ccnc([C@H](C2CC2)n2cc(Cn3c(=O)oc4ccccc43)nn2)c1 | -3% | 0.37
Cc1nn(C(C)C)c(C)c1CN(C)C(=O)[C@H](C)N1CCCC1=O | -12% | 1.27
CCOCCN1C[C@@H]2CC[C@H]1CN(Cc1ccccn1)C2 | -1% | 0.17
CC(ON1CC1(C(F)(F)F)C(F)(F)F)(C(N)=O)C(N)=O (centres undefined) | -3% | 0.52
CN1C[C@H](c2ccc(F)cc2)[C@@H](C(=O)c2cccnc2)[C@]12C(=O)Nc1ccccc12 | -16% | 2.05
O=C(Cc1c[nH]c2ccccc12)N1CCN(CCC2OCCO2)CC1 | -10% | 1.24
Cc1nc(C(C)C)sc1C(=O)N1CCC2(CC1)OCCO2 | -3% | 0.39
CCCC(=O)c1cn(Cc2nc(-c3cccnn3)no2)c2ccccc12 | -2% | 0.47
CCc1ncnc(N2CCN3CCOC[C@]3(CO)C2)c1F | 0% | 0.01
CN1[C@@H]2CC[C@H]1CN(CC(=O)Nc1ccc(Cl)cn1)CC2 | 0% | -0.03
CCCS(=O)(=O)N1CC[C@@]2(C1)C(=O)Nc1ccc(OC)cc12 | -13% | 1.66
Cc1cc(C)c(CNc2nc3ccccc3o2)c(=O)[nH]1 | -1% | 0.18
CC(Cc1ccsc1)NCC(C)(O)c1cccs1 (centres undefined) | -11% | 1.47
C=CCN(C)C[C@H]1CN2CC[C@H]1C[C@@H]2CNC(=O)Nc1ccc(OC(F)(F)F)cc1 | 57% | -4.08
CC(C)(C)C(=O)Nc1ccncc1C(=O)N1CCN2CCC1C2 (centres undefined) | -9% | 1.22
CC1CN(C)C(C)C2c3ccccc3NC12 (centres undefined) | -9% | 1.33

From ChEMBL document CHEMBL4888484, “Replenishing the malaria drug discovery pipeline: Screening and hit evaluation of the MMV Hit Generation Library 1 (HGL1) against asexual blood stage Plasmodium falciparum ,using a nano luciferase reporter read-out” (2022)
